# This is one part of the list. These are further read-outs of the screen, such as a control signal, another cell line or another target. No call is given for them.
# Experiment: enhancers of HSV replication in host cells, fold increase, host cell viability (AID 1956); note: tested in PC3 cells
# Conditions: HSV replication augmentation in cells; fold increase: measured here: primary screen fold increase 10 uM, at 10 µM, stronger effect = higher value; viability: measured here: host cell viability series, at 25 µM, stronger effect = lower value
Compound,fold increase,viability [%]
CCCCn1nc(-c2ccccc2)c2nc3ccccc3nc21,2.32,99.2
CCOCCCNC(=O)CN1C(=O)C(CC)Oc2ccccc21 (stereo unspecified),1.33,90.1
N#Cc1c2c(c(=S)n(-c3ccccc3)c1N)CCCC2,1.39,94.4
C[C@@H]1CN(Cc2nc(Cc3ccccc3F)no2)C[C@H](C)O1,1.73,99.5
O=C1/C(=C/c2c[nH]c3ccccc23)CCC/C1=C\c1c[nH]c2ccccc12,1.5,
Cc1oc(C)c2c(=O)ccc3c(c12)OC(N)=C(C#N)C3c1ccc(F)cc1 (stereo unspecified),10.3,80.7
CCN1CCc2c(sc(NC(=S)NC(=O)c3ccc(Cl)cc3)c2C(N)=O)C1,1.67,91.4
Cc1ccc(/C=C/c2nc3ccccc3[nH]2)o1,1.55,
COc1ccc(N=Cc2c(O)c3ccccc3n2C(C)=O)cc1,2.57,91.5
CCCCCCc1cc2cc(C(=O)NC)c(=N)oc2cc1O,1.65,92.7
CCOC(=O)c1c(C)nc2sc(C(=O)Nc3ccc(C(C)=O)cc3)c(N)c2c1-c1ccc(OC)cc1,1.12,
CCOC(=O)Cn1c(=O)c(-c2cc(Br)ccc2N)nc2ccccc21,1.33,91.1
CC(C)N(C(=O)N1CCC(c2nc(-c3ccncc3)no2)CC1)C(C)C,1.36,73.4
OC1(c2ccc3c(c2)OCO3)CCN(Cc2ccccn2)CC1,1.44,103
COc1cc(/C=C(/C#N)c2nc3ccccc3[nH]2)ccc1OC(=O)c1ccco1,3.06,84
COC(=O)c1ccc(-c2noc(CN(C)CCC3CCCCO3)n2)cc1 (stereo unspecified),1.39,92.2
CCOc1cccc(=O)c2c(C)n(-c3ccc(C(=O)O)cc3)c(C)c12,1.61,98.4
COc1cccc(OC(C)c2ccnc3nc(/N=C/N(C)C)nn23)c1 (stereo unspecified),1.34,96
Cc1c2ccccc2nc2c(F)c(NC(C)C)c(F)c(F)c12,1.41,89.2
CSC1=NSC2=NC(=O)/C(=C\c3coc4ccccc4c3=O)C(=N)N12,2.23,90.7
CCN(CC)c1ccc(/C=C/c2cc(-c3ccccc3)c3ccccc3n2)cc1,4.66,95.3
O=C1CC(c2ccccc2Cl)=NN(c2ncnc3ccccc23)C1=O,1.62,
CCOc1cccc(=O)c2c(C)oc(C)c12,2.6,96.5
CCOC(=O)C1=C(C)NC(=O)NC1c1ccc(N2CCC(c3ccccc3)=N2)cc1 (stereo unspecified),1.44,91.9

Compound,fold increase,viability [%]
C=CCN1C(=O)/C(=C/c2ccc(O)c(OC)c2)S/C1=N/c1nccs1,7.3,
COc1cc(/C=C2/SC(=S)N(C)C2=O)ccc1OC(=O)c1ccco1,4.29,85.7
c1ccc2c(c1)nnn2Cc1nnc2sc(-c3ccncc3)nn12,1.43,99.1
O=C(Oc1c(-c2ccco2)oc2ccccc2c1=O)c1cccnc1,5.5,99.4
Nc1c(C(=O)c2cccs2)sc2nsc(SCCN3CCCCC3)c12,7.25,
O=C(N=c1ccn(-c2nc3ccccc3nc2NS(=O)(=O)c2ccc(Cl)cc2)cc1)c1cccs1,2.06,90.7
CCCN1C(=O)/C(=C\C=C2/C=CN(CC)c3ccccc32)SC1=S,1.82,86.6
COc1ccc(N2CCN(S(=O)(=O)Cc3ccccc3)CC2)cc1,1.53,105
Cc1cccc(NC(=O)c2sc3nc4c(c(-c5cccs5)c3c2N)CN(C)CC4)c1,1.32,90.3
Nc1cc2c3c(cccc3c1)C(=O)N(CCN1CCCC1)C2=O,1.48,
Cc1nnc(SCCN2C(=O)c3ccccc3C2=O)nc1C,1.32,
N#Cc1cc2c(nc1SCC(=O)Nc1sc3c(c1C#N)CCC3)CCCC2,1.24,97.7
COc1ccc(-c2nc(CSCC(=O)N3CCN(C4CCCCC4)CC3)c(C)o2)cc1OC,1.37,87
CCn1c(SCC(=O)N2CCc3ccccc3C2)nc2sc(C)c(C)c2c1=O,2.06,94.3
Cc1ccc(O)c(C(=O)c2cc(C#N)c3nc4ccccc4n3c2)c1,4.58,86.2
CCCSc1nc2sc3c(c2c(=O)[nH]1)CCN(Cc1ccccc1)C3,1.39,
CC(C)Sc1nnc(Cn2c(=O)sc3ccccc32)n1-c1ccccc1,1.32,98.1
COc1cc(/C=C/C(=O)c2c(O)cc(C)oc2=O)cc(OC)c1O,1.32,96.4
COc1cc(/C=C(\C#N)c2nc3ccccc3[nH]2)ccc1OC(=O)c1ccco1,6.91,76.6
COc1ccc(CN2C(=O)/C(=C/c3ccc(-c4ccc(Cl)c(C(=O)O)c4)o3)SC2=S)cc1,2.82,
Cc1cc(NS(=O)(=O)c2ccc(NC(=O)CSc3nc4ncc(Cl)cc4[nH]3)cc2)nc(C)n1,1.39,101
CCc1ccc(CNc2ccc(N3CCN(C(C)=O)CC3)cc2)cc1,1.18,
Cc1ccc(S(=O)(=O)NC2=NCN(CCOC(=O)c3ccccc3)CN2)cc1,1.34,96.1
CC(=O)C1=NN(c2ccccc2)C(c2cccs2)N1c1ccccc1 (stereo unspecified),1.33,84.4

Compound,fold increase,viability [%]
COc1cc(N2CCCC2)c(OC)cc1/C=C(/C#N)c1cccc(F)c1,1.98,
COc1ccc(C2=CC(c3ccc(Cl)cc3)n3cnnc3N2)cc1OC (stereo unspecified),1.19,93.7
CCn1c(C)cc(/C=C2/SC(=S)NC2=O)c1C,1.74,96.6
Cc1ccc(Sc2ncccc2NC(=O)c2ccccc2Cl)cc1,1.39,98.3
O=[N+]([O-])c1cccc(-c2ccc(/C=N/NC(=S)Nc3ccccc3)o2)c1,1.56,
O=c1c2ccccc2c(/C=N/NS(=O)(=O)c2ccccc2)c(O)n1-c1ccccn1,1.76,90.8
N#Cc1cc(Sc2ccccn2)c([N+](=O)[O-])cc1C#N,3.25,94.2
COc1ccc(OCC(=O)NNC(=O)Cc2coc3cc(OC)ccc23)cc1,1.37,97.5
COc1ccc(Cn2c(O)c(/C=N/NC(=O)c3cccnc3)c3ccccc3c2=O)cc1,1.95,87.7
CCS(=O)(=O)Nc1cc(C(=O)OC)ccc1C(=O)OC,1.4,97.9
CC1=CC(C)(C)Nc2ccc(OC(=O)CN3C(=O)c4ccccc4C3=O)cc21,1.78,
CCN1/C(=C/c2cc[n+](CCCS(=O)(=O)[O-])c3ccccc23)Sc2ccccc21,1.75,86.4
Cc1ccc(NC(=O)N(Cc2ccc3c(c2)OCO3)Cc2cc3cc4c(cc3[nH]c2=O)OCCO4)cc1,1.13,
CCn1c(C)cc(/C=C2/SC(=S)N(CC(=O)O)C2=O)c1C,1.82,
COc1cccc(CSc2nnc(CSc3nc4nc(C)cc(C)n4n3)s2)c1,1.35,94
C/C(=N/NC(=O)c1cccs1)c1c(C)[nH]n(-c2nc3ccccc3s2)c1=O,1.34,
COc1ccc(C(=O)c2sc3nc(C)cc(-c4cccs4)c3c2N)cc1,1.69,83.4
CCOC(=O)C1=C(Cc2ccc(Cl)cc2)C(=O)c2ccccc2C1=O,3.18,70.2
CC(C)CN(C(=O)CN1CCc2ccccc21)c1c(N)n(CC(C)C)c(=O)[nH]c1=O,1.51,89.9
O=c1[nH]c(Cc2ccccn2)nc2scc(-c3ccccc3Cl)c12,2.18,78.4
Cc1ccc(S(=O)(=O)NCCCC(=O)O)cc1,1.61,96.2
Nc1ccccc1Nc1cc(-c2ccccc2)nn1-c1ccccc1,1.72,103
O=[N+]([O-])c1ccccc1-c1ccc(C(=S)N2CCCCC2)o1,1.42,97.7
CC(=O)Nc1ccc(S(=O)(=O)Nc2nc3ccccc3nc2Nc2ccc(N)cc2)cc1,2.46,96.9

Compound,fold increase,viability [%]
CC1CCCN(C(=O)COC(=O)c2ccc[nH]c2=O)C1 (stereo unspecified),1.34,97.6
COc1cccc(=O)c2c(C)n(-c3ccc(C(=O)O)cc3)c(C)c12,1.4,93.9
Cc1ccc(S(=O)(=O)Nc2cc(C(C(=O)OC(C)C)C(=O)C(F)(F)F)c(O)c3ccccc23)c(C)c1 (stereo unspecified),1.66,
O=C(O)c1ccc(-c2ccc(/C=N/Nc3ccc([N+](=O)[O-])cc3)o2)cc1,2.78,98.9
CC(C)(C)c1ccc(-c2nnc3sc(-c4ccccn4)nn23)cc1,1.46,87.2
CC(C)c1cc(=O)oc2c3c4c(cc12)CCCN4CCC3,1.53,89
O=C(O)/C(=C/c1ccco1)c1ccccc1,1.89,99.4
CCn1cc(NC(=O)Nc2ccccc2C(=O)OC)c(C(N)=O)n1,1.43,102
CC(C)NC(=O)NC(=O)COC(=O)c1ncc(Cl)c(Cl)c1Cl,1.39,95.8
O=C(NCCCN1CCOCC1)c1ccccc1NS(=O)(=O)c1cc([N+](=O)[O-])ccc1Cl,1.34,
Cc1c(Cc2ccccc2)sc(/N=C/c2c(O)ccc3ccccc23)c1C(N)=O,1.32,
CCOC(=O)N1CCC(Nc2c(Nc3ccc(F)cc3)c(=O)c2=O)CC1,1.32,
Cc1cc(OCC(=O)Nc2cc(-c3nn4c(C)nnc4s3)ccc2C)ccc1Cl,1.36,103
COc1cc(/C=C2\SC(=S)N(N(C)c3ccccc3)C2=O)ccc1O,7.06,90.5
CCOC(=O)/C(=C/C1=CC(=C/N(C)C)/C(=O)O1)C(C)=O,1.94,98.6
C=CCNC(=O)c1sc(=S)n(-c2ccc(C(=O)OCC)cc2)c1N,1.33,87.2
COc1cc(NC(=S)NC(=O)c2ccc(C)cc2C)ccc1NC(=O)c1cccs1,1.16,
CCN1/C(=C/c2ccc3cc(C)ccc3[n+]2CC)Sc2cc(C)ccc21,8.24,12.9
COCCn1c(C)cc2c(c1=O)C(c1ccco1)C(C#N)=C(N)O2 (stereo unspecified),1.81,99.4
COc1cc(OC)cc(C(=O)NCc2n[nH]c(=S)n2-c2ccccc2)c1,1.36,94.1
Cc1ccc(S(=O)(=O)NC(=O)Nc2ncc3c(n2)CC(c2ccco2)CC3=O)cc1 (stereo unspecified),1.37,95.5
Cn1cccc1/C=N/NC(=O)CSc1nc2ccccc2[nH]1,1.38,99.9
